{"source": "PubChem BioAssay AID1259409", "about": "(Chemical Carcinogenesis Research Information System (CCRIS), 2018)", "origin": "cited, not measured here", "system": "rodent chemically induced tumor inhibition, incidence and multiplicity", "assay": "CCRIS tumor inhibitor studies", "settings": "Route [Inhibitor]: ORAL, Species: RAT, Promoter: NONE USED", "excerpt": "The CCRIS database contains chemical records with carcinogenicity, mutagenicity, tumor promotion, and tumor inhibition test results. It was developed by the National Cancer Institute (NCI). Data are derived from studies cited in primary journals, current awareness tools, NCI reports, and other sources. Test results have been reviewed by experts in carcinogenesis and mutagenesis.\nCCRIS provides historical information from the years 1985 - 2011. It is no longer updated.\nThis is an archive assay for CCRIS tumor inhibitor studies.", "note": "This continues a long series; more values of the same kind are listed elsewhere.", "data": [{"compound": "O=[Se](O)O", "values": [{"measurement": "tumour outcome (control, treated, inhibition, significance)", "setting": "Carcinogen: AZOXYMETHANE, 25843-45-2, Carcinogen: AZOXYMETHANE, 25843-45-2, Dose [Inhibitor]: 2 PPM IN DRINKING WATER DAILY STARTING SIMULTANEOUSLY WITH CARCINOGEN TREATMENT AND CONTINUING THROUGH END OF STUDY (STU, Dose [Inhibitor]: 2 PPM IN DRINKING WATER DAILY STARTING SIMULTANEOUSLY WITH CARCINOGEN TREATMENT AND CONTINUING THROUGH END OF STUDY (STU, Strain/Sex: SPRAGUE-DAWLEY/MALE, Target Tissue: Type of Lesion: LARGE INTESTINE: MALIGNANT TUMOR, Dose [Carcinogen]: 8 MG/KG BW IN AQUEOUS SOLUTION 1/WK FOR 8 WK", "result": "90%, 93%, -3%, not significant"}, {"measurement": "tumour outcome (control, treated, inhibition, significance)", "setting": "Carcinogen: AZOXYMETHANE, 25843-45-2, Carcinogen: AZOXYMETHANE, 25843-45-2, Dose [Inhibitor]: 2 PPM IN DRINKING WATER DAILY STARTING SIMULTANEOUSLY WITH CARCINOGEN TREATMENT AND CONTINUING THROUGH END OF STUDY (STU, Dose [Inhibitor]: 2 PPM IN DRINKING WATER DAILY STARTING SIMULTANEOUSLY WITH CARCINOGEN TREATMENT AND CONTINUING THROUGH END OF STUDY (STU, Strain/Sex: SPRAGUE-DAWLEY/MALE, Target Tissue: Type of Lesion: SMALL INTESTINE: MALIGNANT TUMOR, Dose [Carcinogen]: 8 MG/KG BW IN AQUEOUS SOLUTION 1/WK FOR 8 WK", "result": "90%, 93%, -3%, not significant"}, {"measurement": "tumour outcome (control, treated, inhibition, significance)", "setting": "Carcinogen: N-METHYL-N-NITROSOUREA, 684-9-35, Carcinogen: N-METHYL-N-NITROSOUREA, 684-9-35, Dose [Inhibitor]: 4 PPM IN DRINKING WATER DAILY FOR 10 MO STARTING SIMULTANEOUSLY WITH CARCINOGEN TREATMENT (STUDY DURATION: 10 MO), Dose [Inhibitor]: 4 PPM IN DRINKING WATER DAILY FOR 10 MO STARTING SIMULTANEOUSLY WITH CARCINOGEN TREATMENT (STUDY DURATION: 10 MO), Strain/Sex: WE/FEMALE, Target Tissue: Type of Lesion: BRAIN AND SPINAL CORD: NEOPLASM, Dose [Carcinogen]: 20 MG/KG BW ONCE EVERY 4 WK FOR 40 WK", "result": "7/20 (35%), 10/23 (43%), -23%, not significant"}, {"measurement": "tumour outcome (control, treated, inhibition, significance)", "setting": "Carcinogen: N-METHYL-N-NITROSOUREA, 684-9-35, Carcinogen: N-METHYL-N-NITROSOUREA, 684-9-35, Dose [Inhibitor]: 4 PPM IN DRINKING WATER DAILY FOR 10 MO STARTING SIMULTANEOUSLY WITH CARCINOGEN TREATMENT (STUDY DURATION: 10 MO), Dose [Inhibitor]: 4 PPM IN DRINKING WATER DAILY FOR 10 MO STARTING SIMULTANEOUSLY WITH CARCINOGEN TREATMENT (STUDY DURATION: 10 MO), Strain/Sex: WE/FEMALE, Target Tissue: Type of Lesion: FORESTOMACH: NEOPLASM, Dose [Carcinogen]: 20 MG/KG BW ONCE EVERY 4 WK FOR 40 WK", "result": "19/20 (95%), 22/23 (96%), -1%, not significant"}, {"measurement": "tumour outcome (control, treated, inhibition, significance)", "setting": "Carcinogen: N-METHYL-N-NITROSOUREA, 684-9-35, Carcinogen: N-METHYL-N-NITROSOUREA, 684-9-35, Dose [Inhibitor]: 4 PPM IN DRINKING WATER DAILY FOR 10 MO STARTING SIMULTANEOUSLY WITH CARCINOGEN TREATMENT (STUDY DURATION: 10 MO), Dose [Inhibitor]: 4 PPM IN DRINKING WATER DAILY FOR 10 MO STARTING SIMULTANEOUSLY WITH CARCINOGEN TREATMENT (STUDY DURATION: 10 MO), Strain/Sex: WE/FEMALE, Target Tissue: Type of Lesion: HEART: NEUROGENIC SARCOMA, Dose [Carcinogen]: 20 MG/KG BW ONCE EVERY 4 WK FOR 40 WK", "result": "7/20 (35%), 9/23 (39%), -11%, not significant"}, {"measurement": "tumour outcome (control, treated, inhibition, significance)", "setting": "Carcinogen: N-METHYL-N-NITROSOUREA, 684-9-35, Carcinogen: N-METHYL-N-NITROSOUREA, 684-9-35, Dose [Inhibitor]: 4 PPM IN DRINKING WATER DAILY FOR 10 MO STARTING SIMULTANEOUSLY WITH CARCINOGEN TREATMENT (STUDY DURATION: 10 MO), Dose [Inhibitor]: 4 PPM IN DRINKING WATER DAILY FOR 10 MO STARTING SIMULTANEOUSLY WITH CARCINOGEN TREATMENT (STUDY DURATION: 10 MO), Strain/Sex: WE/FEMALE, Target Tissue: Type of Lesion: MAMMARY GLAND: NEOPLASM, Dose [Carcinogen]: 20 MG/KG BW ONCE EVERY 4 WK FOR 40 WK", "result": "15/20 (75%), 15/23 (65%), 13%, not significant"}, {"measurement": "tumour outcome (control, treated, inhibition, significance)", "setting": "Carcinogen: N-METHYL-N-NITROSOUREA, 684-9-35, Carcinogen: N-METHYL-N-NITROSOUREA, 684-9-35, Dose [Inhibitor]: 4 PPM IN DRINKING WATER DAILY FOR 10 MO STARTING SIMULTANEOUSLY WITH CARCINOGEN TREATMENT (STUDY DURATION: 10 MO), Dose [Inhibitor]: 4 PPM IN DRINKING WATER DAILY FOR 10 MO STARTING SIMULTANEOUSLY WITH CARCINOGEN TREATMENT (STUDY DURATION: 10 MO), Strain/Sex: WE/FEMALE, Target Tissue: Type of Lesion: PERIPHERAL NERVES: NEOPLASM, Dose [Carcinogen]: 20 MG/KG BW ONCE EVERY 4 WK FOR 40 WK", "result": "6/20 (30%), 2/23 (9%), 70%, not significant"}]}]}
